Over roughly 110,000 compounds, “z-score” has its median near -0.1; the highest 2% begin near 2. The list shows a part of the results. Active and inactive are the calls of the source.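 Rule for the calls: active = z-score in the third read window above 3 or below -3; inactive = the rest.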
Target: Metabotropic glutamate receptor 8 (Rattus norvegicus) (UniProt P70579)
Experiment: rat mGluR8 modulators via GIRK flux, primary screen, cell-based, thallium flux, HTS (AID 488969)
Conditions: HEK293 rat mGluR8, GIRK (G protein-gated inwardly rectifying potassium channel) thallium flux, FluoZin2; at 10 µM; stronger effect = higher value; submaximal glutamate (EC20) added with thallium

Sequence of UniProt P70579 (P70579 whole entry, looked up): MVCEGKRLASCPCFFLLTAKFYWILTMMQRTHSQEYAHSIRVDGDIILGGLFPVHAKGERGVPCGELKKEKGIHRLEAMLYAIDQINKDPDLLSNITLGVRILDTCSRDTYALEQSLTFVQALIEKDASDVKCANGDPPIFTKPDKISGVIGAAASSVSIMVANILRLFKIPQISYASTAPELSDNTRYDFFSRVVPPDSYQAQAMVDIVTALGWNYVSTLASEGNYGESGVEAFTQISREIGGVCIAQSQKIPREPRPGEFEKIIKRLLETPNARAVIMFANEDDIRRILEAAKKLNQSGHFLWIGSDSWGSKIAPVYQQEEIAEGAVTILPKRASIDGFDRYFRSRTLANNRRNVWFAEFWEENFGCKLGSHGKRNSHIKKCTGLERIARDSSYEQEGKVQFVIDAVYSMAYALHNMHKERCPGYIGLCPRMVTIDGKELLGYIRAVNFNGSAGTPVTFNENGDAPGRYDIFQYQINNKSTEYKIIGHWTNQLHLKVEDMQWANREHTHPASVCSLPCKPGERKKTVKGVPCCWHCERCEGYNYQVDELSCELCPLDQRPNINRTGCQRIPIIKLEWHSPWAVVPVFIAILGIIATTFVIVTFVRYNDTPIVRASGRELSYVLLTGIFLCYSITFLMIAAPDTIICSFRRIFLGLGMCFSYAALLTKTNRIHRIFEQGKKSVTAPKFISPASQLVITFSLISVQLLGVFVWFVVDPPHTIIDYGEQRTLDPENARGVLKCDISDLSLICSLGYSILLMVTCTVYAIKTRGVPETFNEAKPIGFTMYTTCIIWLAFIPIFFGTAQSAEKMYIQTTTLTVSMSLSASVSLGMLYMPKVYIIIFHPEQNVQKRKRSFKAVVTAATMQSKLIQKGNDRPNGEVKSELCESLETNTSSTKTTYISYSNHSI

Structure (SMILES) | z-score
CCc1cccc(CC)c1N(COC)C(=O)Cn1ccccc1=N | 1.21
CCOC(=O)c1cn(CC)c2cc(N3CCOCC3)c(F)cc2c1=O | 0.821
O=S(=O)(CC(O)COc1ccccc1Cl)c1ccccc1 (stereo not given) | -0.286
CNC(=O)C12CC3CC(CC(Cl)(C3)C1)C2 | -0.127
COc1ccc(NC(=O)C(=O)NCCC2=CCCCC2)c(OC)c1 | -0.33
CCCCN(CC)C(=S)Nc1ccc2nc3n(c(=O)c2c1)CCCCC3 | 0.396
CCOC(=O)CSc1nnc(NC(=O)c2cccc(S(=O)(=O)N3CCCCC3)c2)s1 | -0.208
COC(=O)c1ccc(OC(=O)c2cccnc2)cc1 | -0.0168
CCn1c(CNC(=O)c2ccc(OC)cc2)nnc1SCC(=O)c1ccccc1 | -0.00336
O=C(O)CCC(=O)Nc1nnc(C(F)(F)F)s1 | -0.524
O=C(N/C(=C/c1cn(-c2ccccc2)nc1-c1ccccc1)C(=O)N1CCOCC1)c1ccccc1 | -0.166
CCC(=O)Nc1cccc(Br)c1 | 0.0987
O=C(COc1ccccc1)Nc1nnc(-c2ccc3c(c2)CCCC3)o1 | 1.27
O=C1c2ccccc2C(=O)c2c1cccc2N1CCOCC1 | -0.78
CC1(C)CC(=O)C(/C=N/c2ncccc2C(=O)O)=C(O)C1 | -1.37
NC/C(=N\O)c1ccc(Cl)cc1Cl | -0.295
CC(=O)N1CCN(CCN=CC2=C(O)CC(C)(C)CC2=O)CC1 | -0.0249
CCCc1[nH]n(-c2ccc([N+](=O)[O-])cc2)c(=O)c1C=NCCc1c[nH]c2ccccc12 | 0.0152
COc1ccccc1NS(=O)(=O)c1cc(NC(=O)CCC(=O)c2cccs2)ccc1Cl | -0.461
Cc1ccccc1NC(=O)C1CCN(c2cc(-c3ccccc3)nc3ncnn23)CC1 | -2.63
COc1ccccc1/C=C1\CCCC2=C1Nc1nnnn1C2c1ccccc1OC (stereo not given) | -0.404
Cc1cc(NC(=O)CCC(=O)N(c2ccccc2)C(C(=O)NC2CCCCC2)c2cccs2)no1 (stereo not given) | -0.191

Structure (SMILES) | z-score
O=C(CN1C(=O)C2C3C=CC(C3)C2C1=O)Nc1ccc(C(=O)O)cc1 (stereo not given) | -0.000529
CCOC(=O)c1c(NC(=O)OC)sc(C(=O)N(C)C)c1C | 0.8
CCC(C)N=CC1=C(O)CC(c2ccccc2)CC1=O (stereo not given) | 2.05
CCn1cc(C(=O)NC2CCc3ccccc32)c(=O)c2ccc(C)nc21 (stereo not given) | 0.726
CSc1ccc(C2NC(=O)c3c(sc4c3CCN(C)C4)N2)cc1 (stereo not given) | 0.138
CN(C1=NC(=O)C(CC(=O)Nc2ccc(Br)cc2)S1)c1ccc(O)cc1 (stereo not given) | -1.5
O=C(Nc1cccn2ncnc12)c1ccccc1 | -0.00448
Cc1ccccc1OCc1nc2ccccc2c(=O)n1/N=C/c1cccc([N+](=O)[O-])c1 | -0.0563
Cc1cccc(N2CCN(S(=O)(=O)c3ccc4c(c3)CCN4C(=O)CCC(=O)O)CC2C)c1 (stereo not given) | -0.0853
CC(=O)NC(Cc1ccc(C)cc1)C(=O)NC1CCN(C(=O)c2cnccn2)CC1 (stereo not given) | 0.0734
Cc1c(-c2cccc(Cl)c2)nc2ccccc2c1C(=O)OCC(=O)Nc1ccc2c(c1)OCO2 | -0.35
COc1ccnc(N=CNOCc2ccc(C)cc2)c1C#N | 1.13
COc1ccccc1-n1cnc(N)c1C(=O)c1ccccc1 | -0.974
CCC(Oc1ccccc1)C(=O)O/N=C(\N)c1ccc(OC)c(OC)c1 (stereo not given) | 0.297
CCOc1ccc(N2C(=O)c3ccccc3C2O)cc1 (stereo not given) | active: 8.14
C/C(=N\NC(=O)CCn1nc(C)cc1C)C(C)(C)C | -0.219
Cc1cc(Br)ccc1OCc1nc(-c2cccnc2)no1 | 0.725
CC(=O)Nc1ccc(S(=O)(=O)NCCNC(=O)c2ccccc2F)cc1 | 0.374
NC(=O)CC12CC3CC(C1)CC(CC(N)=O)(C3)C2 | -0.186
COc1ccc(NS(=O)(=O)c2ccc(OC)c(N(C)S(=O)(=O)c3ccc(Cl)cc3)c2)cc1 | -0.217
Cc1cc(C)c(C#N)c(SCCS(=O)(=O)Cc2ccccc2)n1 | -0.092
NC(=O)c1c(NC(=O)c2ccc(S(=O)(=O)N3CCOCC3)cc2)sc2c1CCCCC2 | -0.139

Structure (SMILES) | z-score
Cc1ccc(C(=O)Nc2ncnc3sc4c(c23)CCCCC4)cc1 | 0.137
CCOc1ccc(N2C(=O)CC(Sc3ncccn3)C2=O)cc1 (stereo not given) | -0.0351
Cc1ccc2[nH]c3c(=S)nc[nH]c3c2c1 | 0.00346
Cc1cccc(/C=C(\c2nc3ccccc3[nH]2)S(=O)(=O)c2ccccc2)c1 | -0.268
COC(=O)c1c(NC(=O)C2CC2)sc2c1CCN(C(C)=O)C2 | -0.169
COc1ccc(OC)c(Nc2ncnc3sc(-c4ccccc4)cc23)c1 | -0.307
CNc1nc(N2CCc3ccccc32)ncc1F | 0.501
O=C(CN1C(=O)c2ccccc2S1(=O)=O)NCc1ccccn1 | 0.0386
CCC(=O)N1CCc2cc(S(=O)(=O)N3CCc4ccccc4C3)ccc21 | 0.156
Cc1ccc(C)c(S(=O)(=O)NCc2ccc(C(=O)N3CCCCC3C)cc2)c1 (stereo not given) | -0.244
O=C(CNCC1CCCO1)N1CCCc2ccccc21 (stereo not given) | -0.388
Cc1cc(NC(=O)CN2C(=O)NC(C)(c3ccc(OC(F)F)cc3)C2=O)no1 (stereo not given) | -0.134
CCOc1ccc(CN(CCO)CCO)cc1[N+](=O)[O-] | -0.174
c1ccc(CCCNc2ncccn2)cc1 | 0.568
COc1cccc(C(=O)N2CCN(S(C)(=O)=O)CC2)c1 | -0.0391
CCOC(=O)c1c(C)[nH]c(C(=O)COC(=O)CSC)c1C | -0.0983
O=C(NCc1ccccc1)c1sc(=S)n2c1[nH]c(=O)c1ccccc12 | -0.316
Cc1ccc(S(=O)(=O)N2CCCOC2CNC(=O)C(=O)NCCCn2ccnc2)cc1 (stereo not given) | -0.0748
COc1nc(OCCNC(C)=O)nc(N(C)C)n1 | -0.00356
CCN=c1scc(-c2ccc3c(c2)NC(=O)CO3)n1N=C1CCCC1 | -0.0799
Cc1cccc(C)c1NC(=S)NCCCN1CCCC1=O | -0.0868
COc1ccc(NC(=O)/C=C/C(=O)O)cc1Cl | 0.0641

Structure (SMILES) | z-score
CSc1nc2ccc(NC(=O)c3nn(C(C)C)c(=O)c4ccccc34)cc2s1 | -0.391
O=C(NC(Cc1c[nH]c2ccccc12)c1nnc2n1CCCCC2)c1cccs1 (stereo not given) | 0.999
Cc1ccc(-n2cc(C(=O)c3ccccc3O)cn2)cc1 | 1.71
Cn1c2c(c(=O)n(C)c1=O)C(c1cccc([N+](=O)[O-])c1)Nc1ccccc1O2 (stereo not given) | -0.0548
O=C(OCC(=O)N1CCc2ccccc21)c1ccc[n+]([O-])c1 | 0.176
Cc1cc2n(n1)C(c1cn(-c3ccccc3)nc1C)Nc1c(C)cccc1-2 (stereo not given) | 0.766
COc1ccc2oc(C(=O)OCC(=O)NCCN3C(=O)CSC3=O)c(C)c2c1 | -0.302
Cc1ccc(NC(=O)CSc2nc3ccccc3c(=O)n2CCCN2CCCCC2)cc1C | 0.975
COc1cc2c(cc1OC)C1=C(C#N)CC/C(=N\S(=O)(=O)c3cccc(Cl)c3)N1CC2 | -0.167
COc1ccc(NC(=O)c2ccc(NC(=O)C(C)C)cc2)c([N+](=O)[O-])c1 | -0.349
CC1(C)C2CCC1(CS(=O)(=O)NCc1ccc(C(=O)O)cc1)C(=O)C2 (stereo not given) | -0.0984
COC(=O)Nc1ncc(CN2CCCCC2)s1 | 0.102
O=C(COc1ccccc1F)NNC(=O)c1ccc(N2CCCCC2)c([N+](=O)[O-])c1 | 1.61
CCOC(=O)C1=C2c3ccc4ccccc4c3CC(C)(C)N2C(=O)C1=O | -0.0446
CCOC(=O)C1CCN(C(=O)c2cccc(C(=O)N3CCC(C(=O)OCC)CC3)c2)CC1 | 0.148
Cc1c(Cl)cccc1NC(=S)N1CCOCC1 | -0.256
CCOC(=S)SCC(=O)N1CCc2cc(OC)ccc2C1C1C(=O)CCCC1=O (stereo not given) | 0.03
O=C1c2ccccc2C(=O)N1CCc1csc(-c2cccc(F)c2)n1 | 0.0764
CC(C)(C)c1ccc(OCCNC(=O)Cc2ccc(F)cc2)cc1 | -0.205
CC(=O)N1N=C(c2ccc3ccccc3c2)OC1(C)C | -0.968
COCCN1C(=O)c2ccccc2C(C(=O)NCc2ccco2)C1c1c[nH]c2ccccc12 (stereo not given) | 0.908
COc1ccccc1N(CC(=O)Nc1ccccc1C)S(C)(=O)=O | 0.518

Structure (SMILES) | z-score
COC(=O)C1ON2OC(C(=O)OC)C(C(=O)OC)C2C1CC(C)=O (stereo not given) | -0.367
O=C(NCCN1CCOCC1)c1ccc2ccccc2n1 | -0.0158
O=C1CCC(=O)N1OCCCCOc1ccccc1 | 0.279
COc1ccc([N+](=O)[O-])cc1NC(=O)c1ccc(CN(c2ccc(C)c(C)c2)S(C)(=O)=O)cc1 | -0.311
O=C(NCc1ccco1)c1ccc(COc2ccccc2Cl)cc1 | -0.105
NC1=NC(=O)CC(C(=O)NCc2ccccc2)S1 (stereo not given) | 0.208
CC(=O)NCCn1c(SCC(=O)NCC2CCCO2)nc2ccccc2c1=O (stereo not given) | 0.564
COc1ccc(CNC(=O)C/C(C)=N/NC(=O)Cc2ccc(OC)c(OC)c2)cc1 | 0.123
Cc1cccc(OCC(=O)Nc2cc(C)on2)c1 | -0.0536
CCN(CC)c1ccc(/C=N/NC(=S)NCc2ccccc2)cc1 | -0.191
CCOC(=O)N1CCN(C(=O)CS(=O)(=O)c2cn(Cc3ccc(Cl)cc3)c3ccccc23)CC1 | -0.545
CCc1cc(-c2n[nH]c(=S)n2-c2cccc(C)c2)cs1 | 0.65
COc1ccc(CSc2nnc(C)n2N)cc1 | 0.349
CCc1ccc(NC(=O)c2cnc3n(c2=O)CCS3)cc1 | 2.53
O=c1cc(COn2nnc3ccc(C(F)(F)F)cc32)nc2sccn12 | -0.473
COc1ccc(/C=N/n2c(N)nc(-c3ccccc3)c2-c2ccccc2)cc1 | -0.377
Oc1ccc(/C=N/NC(=S)Nc2cccnc2)c(O)c1 | 1.24
CCCCC(CC)CNC(=O)/C=C/c1ccc(F)cc1 (stereo not given) | 1.31
Cc1ccccc1C(=O)N1CCN(c2ccc([N+](=O)[O-])c(N3CCOCC3)c2)CC1 | -0.213
Cn1cccc1C(=O)NC(=O)COC(=O)CC12CC3CC(CC(Br)(C3)C1)C2 | -0.458
CCOc1ccccc1NC(=O)C1CCCN(S(=O)(=O)c2c(C)[nH]c(=O)[nH]c2=O)C1 (stereo not given) | -0.067
CCOC(=O)N1CCC(N2Cc3cccc(C(=O)NCc4ccccn4)c3C2=O)CC1 | -0.271
